This note sets out measurements from publication PMC4336329 (PLoS ONE, 2015).

Out of some 310,000 compounds screened, about 14,000 (4.5%) showed an effect of 50% or more. The effect is printed as a negative number. The list shows a part of the results.
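Also: peak tail current of the secondary pulse compared with the same well before compound.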

The target of the assay is human ether-à-go-go-related gene (hERG) potassium channel (human, UniProt Q12809). In words: primary screen, population patch clamp on CHO cells stably expressing hERG.
human ether-à-go-go-related gene (hERG) potassium channel, sequence (Q12809 whole entry, looked up): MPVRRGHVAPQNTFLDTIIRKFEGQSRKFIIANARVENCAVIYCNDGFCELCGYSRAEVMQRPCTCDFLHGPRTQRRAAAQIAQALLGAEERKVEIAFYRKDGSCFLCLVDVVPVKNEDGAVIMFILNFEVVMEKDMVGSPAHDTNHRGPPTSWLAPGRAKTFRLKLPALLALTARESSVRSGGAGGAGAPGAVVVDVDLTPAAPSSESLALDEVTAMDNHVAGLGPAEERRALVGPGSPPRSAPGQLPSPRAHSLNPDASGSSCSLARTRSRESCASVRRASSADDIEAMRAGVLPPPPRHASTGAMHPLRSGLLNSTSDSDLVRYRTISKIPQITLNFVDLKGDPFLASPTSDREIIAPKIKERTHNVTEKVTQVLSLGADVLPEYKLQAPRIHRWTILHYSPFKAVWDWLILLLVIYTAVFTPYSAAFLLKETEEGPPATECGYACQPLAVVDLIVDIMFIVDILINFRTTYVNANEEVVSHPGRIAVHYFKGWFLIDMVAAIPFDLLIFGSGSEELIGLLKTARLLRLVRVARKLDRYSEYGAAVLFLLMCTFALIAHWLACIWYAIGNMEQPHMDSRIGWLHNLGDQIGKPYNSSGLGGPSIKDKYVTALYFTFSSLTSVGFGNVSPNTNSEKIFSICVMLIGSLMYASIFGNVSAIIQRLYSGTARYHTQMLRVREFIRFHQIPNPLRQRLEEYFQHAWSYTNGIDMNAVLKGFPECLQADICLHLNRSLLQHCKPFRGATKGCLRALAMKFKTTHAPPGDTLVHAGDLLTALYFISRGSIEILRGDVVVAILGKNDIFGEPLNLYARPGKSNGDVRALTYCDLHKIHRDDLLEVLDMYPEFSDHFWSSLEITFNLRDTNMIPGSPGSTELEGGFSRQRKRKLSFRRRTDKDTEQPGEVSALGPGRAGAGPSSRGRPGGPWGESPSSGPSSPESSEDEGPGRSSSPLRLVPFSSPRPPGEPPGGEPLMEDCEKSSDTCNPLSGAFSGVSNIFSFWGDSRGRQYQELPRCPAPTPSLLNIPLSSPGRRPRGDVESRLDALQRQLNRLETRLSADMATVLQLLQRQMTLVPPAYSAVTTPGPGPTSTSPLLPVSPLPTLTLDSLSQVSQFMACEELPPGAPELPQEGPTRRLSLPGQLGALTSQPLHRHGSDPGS
For the compound `O=C(Nc1ccnn1C1CCN(C(=O)c2ccc(Cl)c(F)c2)CC1)C1CCOC1` (stereo not shown), the “hERG current change (%, negative = inhibition) at 10uM” value turned out to be 5.2%.

As for `Cc1ccc(NC(=O)c2ccc3[nH]c(=O)c(=O)[nH]c3c2)nc1`, the “hERG current change (%, negative = inhibition) at 10uM” value worked out at 6.38%.

For the compound `O=C(c1ccco1)N1CCN(S(=O)(=O)c2ccc(Cl)cc2)CC1`, the “hERG current change (%, negative = inhibition) at 10uM” value is recorded as 2.47%.

With `COc1ccc(NC(=O)c2c(NC(=O)CNCC(C)C)sc3c2CCC3)c(OC)c1`, the “hERG current change (%, negative = inhibition) at 10uM” value turned out to be 22.9%.

Regarding `Br.N=C(N)SCc1ccc(Cl)cc1Cl`, the “hERG current change (%, negative = inhibition) at 10uM” value was -32.2%.

With `Cn1cnnc1SCC(=O)Nc1ccccc1F`, the “hERG current change (%, negative = inhibition) at 10uM” value is 209%.

On to `CC1=NN(c2cccc(C(=O)O)c2)C(=O)/C1=C\C=C\c1ccco1`, for which the “hERG current change (%, negative = inhibition) at 10uM” value is 8.53%.

Take `COCCNC(=O)c1ccc(S(=O)(=O)N2CCCc3ccccc32)cc1`: the “hERG current change (%, negative = inhibition) at 10uM” value was found to be 20.7%.

As to `COC(=O)CNC(=O)CNC(=O)Nc1ccccc1Cl`, the “hERG current change (%, negative = inhibition) at 10uM” value is given as 9.2%.

On to `CC(C)(C)c1ccc(SCCc2cccnc2)cc1`, for which the “hERG current change (%, negative = inhibition) at 10uM” value came to 8.44%.

As to `Cc1ccc(NC(=S)NN2CCN(C)CC2)c(C)c1`, the “hERG current change (%, negative = inhibition) at 10uM” value is listed as 12.6%.

For `O=C1N/C(=N/N=C/c2ccc(O)cc2)SC1Cc1ccccc1` (stereo not shown), the “hERG current change (%, negative = inhibition) at 10uM” value is reported as -0.793%.

On to `OCc1c(Cl)nc2ccccn12`, for which the “hERG current change (%, negative = inhibition) at 10uM” value is listed as -17.5%.

For the compound `CCOC(=O)c1sc(=S)n(C)c1NC(=O)c1ccc(C(C)(C)C)cc1`, the “hERG current change (%, negative = inhibition) at 10uM” value stood at 11.8%.

Take `COc1ccc([N+](=O)[O-])cc1/C=N/NC(=O)CNC(=O)c1cccc(F)c1`: the “hERG current change (%, negative = inhibition) at 10uM” value is recorded as -24.3%.

Regarding `CCN1CCCc2cc(CN(CCN3CCOCC3)C(=S)Nc3ccc(C)cc3)ccc21`, the “hERG current change (%, negative = inhibition) at 10uM” value is -8.41%.

In the case of `COCCN1CCN(C(=O)c2cc(COc3ccc(F)cc3Cl)on2)CC1`, the “hERG current change (%, negative = inhibition) at 10uM” value is on record as -3.91%.

For the compound `CCOC(=O)C(C)Sc1nc2c(cnn2-c2ccc(F)cc2)c(=O)[nH]1` (stereo not shown), the “hERG current change (%, negative = inhibition) at 10uM” value is on record as 2.97%.

Regarding `CC(C)(C)c1cc(OC(=O)C2CCCC2)ccc1O`, the “hERG current change (%, negative = inhibition) at 10uM” value came out at 16.7%.

Take `O=C(CN1N=C(C(F)(F)F)CC1(O)c1ccc([N+](=O)[O-])cc1)c1ccccc1` (stereo not shown): the “hERG current change (%, negative = inhibition) at 10uM” value is listed as -8.56%.

Regarding `CC(=O)c1ccc(-c2ccccc2)cc1`, the “hERG current change (%, negative = inhibition) at 10uM” value came to 19.1%.

On to `Cc1nnc(SCCC(=O)Nc2nc(-c3ccccc3)ns2)s1`, for which the “hERG current change (%, negative = inhibition) at 10uM” value is on record as 0.127%.

Take `Cc1ccc(-n2c(=O)c3sccc3n(Cc3cc(=O)n4cc(Cl)ccc4n3)c2=O)cc1F`: the “hERG current change (%, negative = inhibition) at 10uM” value is given as -41.3%.

For the compound `O=C(COc1ccc(-n2cnnn2)cc1)NC1CCCCC1`, the “hERG current change (%, negative = inhibition) at 10uM” value was -24.3%.

On to `COc1ccc(CN(CC2CCC(C(=O)O)CC2)C(=S)Nc2ccccc2C)cc1` (stereo not shown), for which the “hERG current change (%, negative = inhibition) at 10uM” value was 20.9%.

In the case of `O=C(O)C(=O)O.O=[N+]([O-])c1ccc(S(=O)(=O)N2CCN(Cc3ccco3)CC2)cc1`, the “hERG current change (%, negative = inhibition) at 10uM” value was found to be 15.3%.

Take `C=CCn1c(SCn2nnc3ccccc3c2=O)nnc1C1CCCCC1`: the “hERG current change (%, negative = inhibition) at 10uM” value is listed as -14.1%.

For `Cc1ccc(NC(=O)C(=O)NN)cc1`, the “hERG current change (%, negative = inhibition) at 10uM” value turned out to be 17.3%.

In the case of `CCCc1cc(=O)[nH]c(SCc2ccc(C#N)cc2)n1`, the “hERG current change (%, negative = inhibition) at 10uM” value is -18.5%.

With `COc1ccc(-n2c(NN)nc3sc4c(c3c2=O)CCCC4)cc1`, the “hERG current change (%, negative = inhibition) at 10uM” value is -47.4%.

Regarding `CCOC(=O)N1CCN(S(=O)(=O)c2ccc(C(=O)Nc3nc4ccc(F)cc4s3)cc2)CC1`, the “hERG current change (%, negative = inhibition) at 10uM” value is -25.3%.

`COC(=O)N/N=C\c1cc(Br)ccc1OCc1ccccc1`: the “hERG current change (%, negative = inhibition) at 10uM” value was -6.55%.

For `O=c1[nH]c(S)c(/C=C2\C=Nc3ccccc32)s1`, the “hERG current change (%, negative = inhibition) at 10uM” value stood at 20.1%.

As for `Cn1c(=O)c2[nH]c(N/N=C(/C#N)C(N)=O)nc2n(C)c1=O`, the “hERG current change (%, negative = inhibition) at 10uM” value is on record as -1%.

As for `Cc1cc(=O)n2[nH]c(C)cc2n1`, the “hERG current change (%, negative = inhibition) at 10uM” value is reported as 16.3%.

Turning to `CN1CCN(c2nc3c(c(=O)[nH]c(=O)n3C)n2CC(N)=O)CC1`, the “hERG current change (%, negative = inhibition) at 10uM” value was found to be 13.5%.

On to `Cc1ccc(-c2cc(C(=O)N3CCN(C(=O)c4ccco4)CC3)no2)cc1`, for which the “hERG current change (%, negative = inhibition) at 10uM” value was -34%.

Turning to `COc1ccc(-c2ccc(NS(=O)(=O)c3cc([N+](=O)[O-])ccc3C)cc2)nn1`, the “hERG current change (%, negative = inhibition) at 10uM” value is -25.5%.

Consider `Clc1cccc(/C=N/Nc2nnc(Cl)c3ccccc23)c1`, for which the “hERG current change (%, negative = inhibition) at 10uM” value stood at 1.62%.

As for `CCc1cccc(NS(=O)(=O)c2c(C)nc3sc(CC)nn3c2=O)c1`, the “hERG current change (%, negative = inhibition) at 10uM” value is -24.6%.

With `O=C(NCCNc1ccc([N+](=O)[O-])cc1)c1ccc(Cl)cc1`, the “hERG current change (%, negative = inhibition) at 10uM” value is -52.8%.

`C=CCNC(=O)c1onc(CSc2cc(C)ccc2C)c1C(=O)O`: the “hERG current change (%, negative = inhibition) at 10uM” value was determined as 3.65%.

Consider `Cc1c(C)n(C)c2ccc(C(=O)NCCCN3CCN(C)CC3)cc12`, for which the “hERG current change (%, negative = inhibition) at 10uM” value stood at 14.9%.

With `O=C(CC1SC(=O)N(c2ccccc2)C1=O)Nc1cccc2ccccc12` (stereo not shown), the “hERG current change (%, negative = inhibition) at 10uM” value was found to be 11.7%.

`O=C(NO)c1cc(OCC(F)(F)F)ccc1OCC(F)(F)F`: the “hERG current change (%, negative = inhibition) at 10uM” value is -0.951%.

On to `CCOC(=O)C1CCN(C(=O)C(C)Oc2ccc(C(=O)c3ccccc3)cc2)CC1` (stereo not shown), for which the “hERG current change (%, negative = inhibition) at 10uM” value is listed as -41.6%.

On to `O=C(O)C[C@H]1c2cc(C(F)(F)F)ccc2S(=O)(=O)N1Cc1ccccc1`, for which the “hERG current change (%, negative = inhibition) at 10uM” value worked out at 12.8%.

As for `COc1cc(CN2CCC(C(=O)N3CCN(c4ccccc4F)CC3)CC2)ccc1O.O=C(O)C(=O)O`, the “hERG current change (%, negative = inhibition) at 10uM” value is recorded as -19.9%.

Consider `CCOC(=O)C1(c2ccccc2)CCN(CC(=O)Nc2ccc(C)cc2)CC1`, for which the “hERG current change (%, negative = inhibition) at 10uM” value is recorded as -30.1%.

With `Cc1ccc(CN2CCNC(=O)C2CC(=O)N(C)Cc2cnccn2)cc1` (stereo not shown), the “hERG current change (%, negative = inhibition) at 10uM” value stood at 20.4%.

Regarding `CCC(CC)C(=O)OCC(=O)NC12CC3CC(CC(C3)C1)C2`, the “hERG current change (%, negative = inhibition) at 10uM” value was -19.5%.

With `CS(=O)(=O)N(CC(=O)NCCSCc1ccccc1Cl)c1ccc(F)cc1`, the “hERG current change (%, negative = inhibition) at 10uM” value was -23.9%.

As to `CNc1c([N+](=O)[O-])cnn1-c1ccccn1`, the “hERG current change (%, negative = inhibition) at 10uM” value is recorded as -15.5%.

Turning to `CC(C)Oc1ccc(C(=O)NC2=NCCS2)cc1`, the “hERG current change (%, negative = inhibition) at 10uM” value is reported as 23.4%.

With `COc1ccc(/C=C/C(=O)O)cc1S(=O)(=O)NC1CCS(=O)(=O)C1` (stereo not shown), the “hERG current change (%, negative = inhibition) at 10uM” value is reported as 21%.

`O=C(Nc1cccc(-n2cnnn2)c1)c1ccc(C(F)(F)F)cc1`: the “hERG current change (%, negative = inhibition) at 10uM” value was -15.3%.

In the case of `O=C(NC1CCN(Cc2ccccc2)CC1)c1cccc(S(=O)(=O)Nc2ccc(F)cc2)c1`, the “hERG current change (%, negative = inhibition) at 10uM” value is listed as -63.8%.

`Cl.O=C(CCN1CCCCCC1)Nc1cccc(F)c1`: the “hERG current change (%, negative = inhibition) at 10uM” value was -23.6%.
